Here are results for 141 sequences from the supplement of paper PMC3724861.

The other results are listed elsewhere or left out.

This experiment relates to T1, Caupolican (Caup) homeodomain DNA-binding domain.
T1 sequence: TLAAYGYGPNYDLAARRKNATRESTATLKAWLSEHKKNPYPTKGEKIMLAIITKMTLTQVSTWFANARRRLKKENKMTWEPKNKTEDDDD
The experiment is described as follows: PBM E-score (8-mer, recovered from the published 9-mer minima) (E-score (dimensionless, -0.5 to 0.5)); Drosophila protein; higher = stronger relative binding preference, active = 0.31 or more. Put shortly: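 Caup's homeodomain DNA-binding domain (residues 214-303) was made by in vitro transcription and translation and applied at 100 nM to custom-designed protein binding microarrays. Each value is an enrichment score that gives relative binding preference for a short DNA word, with higher meaning stronger. The 8-mer values were recovered from published 9-mer scores, each of which was the minimum of its two constituent 8-mer scores. A cutoff of 0.31 marks candidate sites.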
For the sequence AAGTATAG, the “PBM E-score” value was inactive: -0.0316.

As to CCTAGTTC, the “PBM E-score” value is inactive: -0.0119.

ACTCAGGG: the “PBM E-score” value is inactive: -0.0697.

In the case of CGAGCGCG, the “PBM E-score” value is inactive: -0.161.

GGACACAC: the “PBM E-score” value was inactive: 0.162.

Consider CACTAGGG, for which the “PBM E-score” value was inactive: -0.165.

For the sequence AGTACAAC, the “PBM E-score” value was inactive: 0.275.

Regarding ATTTTCAA, the “PBM E-score” value is inactive: 0.0067.

Regarding ACATAGAA, the “PBM E-score” value was inactive: 0.249.

Turning to CCAGATCG, the “PBM E-score” value is inactive: -0.0534.

CGCAACAG: the “PBM E-score” value is inactive: -0.0246.

Consider CCCACTTA, for which the “PBM E-score” value is inactive: -0.063.

For CGTTCCGC, the “PBM E-score” value is inactive: -0.0996.

In the case of GCTCCCAC, the “PBM E-score” value is inactive: -0.209.

Regarding AGCTGCCA, the “PBM E-score” value is inactive: -0.108.

As for CAAACTAC, the “PBM E-score” value was inactive: 0.207.

For the sequence CAGCCCTG, the “PBM E-score” value is inactive: -0.154.

ACTTCCTC: the “PBM E-score” value is inactive: -0.0868.

Turning to CTGGATTC, the “PBM E-score” value was inactive: 0.0143.

Regarding CTTTGATC, the “PBM E-score” value is inactive: -0.0179.

On to CACTAAAG, for which the “PBM E-score” value is inactive: -0.125.

Take TAAAGGTA: the “PBM E-score” value is inactive: 0.0487.

As for ATTACAAC, the “PBM E-score” value is active: 0.37.

For ATACCTCA, the “PBM E-score” value is inactive: 0.0223.

With CAGCGGAC, the “PBM E-score” value is inactive: -0.187.

As for AAGACAAA, the “PBM E-score” value is inactive: 0.061.

Regarding AGATTGTG, the “PBM E-score” value is inactive: 0.0711.

ATTTGCTC: the “PBM E-score” value was inactive: 0.0542.

For the sequence CAGCTACC, the “PBM E-score” value is inactive: -0.0456.

As for CAATCCGG, the “PBM E-score” value is inactive: -0.0921.

With ATTGCTCA, the “PBM E-score” value was inactive: 0.0739.

In the case of AACTGCAC, the “PBM E-score” value is inactive: -0.00808.

For AACAGCTG, the “PBM E-score” value was inactive: 0.0661.

On to GCTGAAGA, for which the “PBM E-score” value was inactive: -0.0212.

As to AGAGAAAG, the “PBM E-score” value is inactive: -0.103.

Consider CGACGCAG, for which the “PBM E-score” value is inactive: -0.075.

With TCCCGTAA, the “PBM E-score” value is inactive: -0.00085.

For the sequence ATGTCAGG, the “PBM E-score” value is inactive: 0.209.

As to CCCGAGGA, the “PBM E-score” value is inactive: -0.126.

In the case of ATTGTTTC, the “PBM E-score” value is inactive: 0.143.

In the case of CCACTTCG, the “PBM E-score” value is inactive: -0.151.

Turning to CAACTGTA, the “PBM E-score” value is inactive: 0.183.

With GCTTTCGA, the “PBM E-score” value is inactive: -0.13.

Regarding AGTACACA, the “PBM E-score” value was active: 0.342.

With TCTCGACA, the “PBM E-score” value was inactive: 0.133.

On to CTGGTTTA, for which the “PBM E-score” value is inactive: 0.0707.

As to CACCTAAC, the “PBM E-score” value was inactive: -0.0298.

As for CAAAGCAG, the “PBM E-score” value is inactive: -0.0771.

Regarding AAAGCCCC, the “PBM E-score” value was inactive: -0.238.

As to CTCTGTGC, the “PBM E-score” value was inactive: -0.0962.

Turning to CAAAAGAA, the “PBM E-score” value is inactive: 0.0424.

For CCATGCTC, the “PBM E-score” value is inactive: -0.00716.

As to CTTGTCTC, the “PBM E-score” value was inactive: 0.139.

For CAAGATTA, the “PBM E-score” value is inactive: 0.131.

Regarding CGGTGTTC, the “PBM E-score” value was inactive: 0.157.

In the case of CTTTGATA, the “PBM E-score” value is inactive: 0.0524.

For AGGAGGAG, the “PBM E-score” value is inactive: -0.188.

Regarding ACAGGCGT, the “PBM E-score” value was inactive: -0.013.

As to ACTTATAT, the “PBM E-score” value was no less than 0.176.

As for ATCTTTAA, the “PBM E-score” value is inactive: 0.00575.

Regarding AAACTTTC, the “PBM E-score” value is inactive: -0.0217.

For AAGGAGCC, the “PBM E-score” value was inactive: -0.22.

With AGGGGCGC, the “PBM E-score” value was inactive: -0.248.

As for AAACAATC, the “PBM E-score” value is inactive: 0.115.

ATCAGAGG: the “PBM E-score” value was inactive: -0.0911.

Consider ACGTGAGG, for which the “PBM E-score” value was inactive: -0.00217.

With ATTAATGA, the “PBM E-score” value is inactive: 0.184.

As for CGCTTGAA, the “PBM E-score” value is inactive: 0.0019.

Turning to CAATCCCA, the “PBM E-score” value was inactive: -0.0862.

As to ATACATGG, the “PBM E-score” value is active: 0.422.

ATGCTGGG: the “PBM E-score” value was inactive: -0.069.

Consider GAGATGCA, for which the “PBM E-score” value was inactive: -0.024.

With GGTACGAA, the “PBM E-score” value was inactive: 0.0381.

For AGGCGAAT, the “PBM E-score” value is inactive: -0.0418.

For the sequence GCTCACAC, the “PBM E-score” value was inactive: -0.0528.

Consider ATCGTGTC, for which the “PBM E-score” value was active: 0.336.

Consider CAGAGAAA, for which the “PBM E-score” value is inactive: 0.0855.

On to AAGTCGGC, for which the “PBM E-score” value was inactive: -0.165.

As to ACCAGTCG, the “PBM E-score” value was inactive: 0.0254.

AATTTACG: the “PBM E-score” value is inactive: 0.0825.

As for AGCGTGTG, the “PBM E-score” value is inactive: 0.165.

For CAACGACG, the “PBM E-score” value is inactive: 0.0887.

Take ATAAACGA: the “PBM E-score” value was inactive: 0.136.

ACGAAAGG: the “PBM E-score” value was inactive: -0.0255.

On to CATGCCCA, for which the “PBM E-score” value was inactive: -0.063.

Turning to CCCTAATC, the “PBM E-score” value was inactive: -0.114.

For GCGGCCGC, the “PBM E-score” value was inactive: -0.272.

Consider ACACTCAT, for which the “PBM E-score” value is no less than 0.179.

ACGAAGTC: the “PBM E-score” value is inactive: 0.00684.

As for ATCTTGGA, the “PBM E-score” value was inactive: 0.0382.

Consider AGGCCAAC, for which the “PBM E-score” value is inactive: -0.05.

With GTTGTTTA, the “PBM E-score” value was active: 0.343.

Turning to CGAGACAC, the “PBM E-score” value is inactive: 0.0289.

For CAGACCGG, the “PBM E-score” value is inactive: -0.146.

CTGAATCA: the “PBM E-score” value is inactive: 0.086.

On to GCATGGAC, for which the “PBM E-score” value is inactive: -0.00539.

For the sequence CGATCGAG, the “PBM E-score” value was inactive: -0.0588.

Turning to GCATAACA, the “PBM E-score” value is inactive: 0.255.

Turning to ATTGATGC, the “PBM E-score” value was inactive: 0.0751.

In the case of ACTTATCT, the “PBM E-score” value was inactive: 0.143.

Take ACGGTTTA: the “PBM E-score” value is inactive: 0.0386.

Consider CCGGCACA, for which the “PBM E-score” value was inactive: -0.0919.

For ATATAAAA, the “PBM E-score” value is inactive: 0.0961.

As to AGAGGCCG, the “PBM E-score” value is inactive: -0.207.

On to GTGAACGA, for which the “PBM E-score” value was inactive: 0.085.

As to GCTTTTAC, the “PBM E-score” value was inactive: 0.158.

For the sequence CCATCGGA, the “PBM E-score” value is inactive: -0.166.

On to CTCGTGAA, for which the “PBM E-score” value is inactive: 0.027.

GACCTAGC: the “PBM E-score” value is inactive: -0.155.

With GCGGTTAA, the “PBM E-score” value is inactive: -0.0974.

Regarding CACGAGAA, the “PBM E-score” value is inactive: 0.0323.

With CACGGCAG, the “PBM E-score” value was inactive: -0.0642.

For CGTCCGAA, the “PBM E-score” value was inactive: -0.115.

With GTCTTTTA, the “PBM E-score” value is inactive: 0.0341.

Turning to AACGGCGC, the “PBM E-score” value was inactive: -0.211.

In the case of AGATTTTC, the “PBM E-score” value was inactive: 0.0235.

Consider CGTCAGAC, for which the “PBM E-score” value was inactive: -0.0541.

Consider ATAGGTCC, for which the “PBM E-score” value is inactive: 0.0255.

On to ATGATGTG, for which the “PBM E-score” value is inactive: 0.0894.

Regarding AACGTAAA, the “PBM E-score” value was inactive: 0.103.

Consider CTGCGCTC, for which the “PBM E-score” value is inactive: -0.226.

In the case of AGTGCCCG, the “PBM E-score” value is inactive: -0.193.

For the sequence AACCCTAA, the “PBM E-score” value was inactive: 0.0678.

With AGCCCCTG, the “PBM E-score” value was inactive: -0.19.

Take ATAGAAGG: the “PBM E-score” value is inactive: -0.0699.

On to GCAAGTGC, for which the “PBM E-score” value is inactive: -0.0754.

Regarding GACGTCAA, the “PBM E-score” value was inactive: 0.0555.

For ACGCGTCT, the “PBM E-score” value is inactive: -0.083.

As for GCACGGGC, the “PBM E-score” value was inactive: -0.224.

In the case of ATCTTTTA, the “PBM E-score” value was inactive: 0.055.

On to CTGAATGA, for which the “PBM E-score” value was inactive: 0.0197.

For AAAGCCGT, the “PBM E-score” value was inactive: -0.0663.

AAAACTGC: the “PBM E-score” value was inactive: 0.0115.

CTAGGAAC: the “PBM E-score” value was inactive: -0.0383.

For the sequence CTACAGCC, the “PBM E-score” value is inactive: -0.0503.

As for ACAGGGCC, the “PBM E-score” value is inactive: -0.0239.

For ACGGTCGA, the “PBM E-score” value is inactive: -0.0338.

In the case of CGCATGCG, the “PBM E-score” value is inactive: -0.112.

With AACCGTTG, the “PBM E-score” value was inactive: 0.0996.

Consider CGTGGACA, for which the “PBM E-score” value was inactive: 0.101.

With GGAGATCA, the “PBM E-score” value is inactive: -0.0646.
